Data reported in patent US20150065381A1.
Certain results were filed several times, with different values. This list holds those alone. There may be further records. The records of an entry seem to repeat one measurement (runs, samples, wells or individuals).

Biological target: HIV-1 JRCSF envelope (HIV-1) (UniProt P20871)
Experiment: capture ELISA, plate 1, mAb 0.3 ug/ml

For PGT151 (antibody), the ELISA OD was 0.057 OD and 0.176 OD [columns of one line].
